Reference: the supplement of paper PMC12645437, “Orthogonal IMiD-Degron Pairs Induce Selective Protein Degradation in Cells” (ACS Chemical Biology, 2025)
The other results are listed elsewhere or left out.

B1: Q9UKT9 (peptide)
chain: FNCEICGHSFTQKGNLLRHIKL
B2: Q9UKT9 (peptide)
chain: LDCNQCGFMCTQKGNLLRHIKL
B3: Q9UKT9 (peptide)
chain: FICNQCGAGFTQKGNLLRHIKL
B4: Q9UKT9 (peptide)
chain: FCCPICGHHFTQKGNLLRHIKL
B5: Q9UKT9 (peptide)
chain: FHCDQCGAGFTQKGNLLRHIKL
B6: Q9UKT9 (peptide)
chain: FYCPVCGAMFTQKGNLLRHIKL
B7: Q9UKT9 (peptide)
chain: FDCNQCGAVFTQKGNLLRHIKL
B8: Q9UKT9 (peptide)
chain: FCCEICGRSFTQKGNLLRHIKL
B9: Q9UKT9 (peptide)
chain: FVCEICGHAFTQKGNLLRHIKL
B10: Q9UKT9 (peptide)
chain: FCCEICGAEFTQKGNLLRHIKL
B11: Q9UKT9 (peptide)
chain: FFCPICGAVFTQKGNLLRHIKL
B12: Q9UKT9 (peptide)
chain: FSCDVCGAAFTQKGNLLRHIKL
B13: Q9UKT9 (peptide)
chain: FYCDVCGAFFTQKGNLLRHIKL
B14: Q9UKT9 (peptide)
chain: FCCNQCGAMFTQKGNLLRHIKL
B15: Q9UKT9 (peptide)
chain: FNCPICGAEFTQKGNLLRHIKL
B16: Q9UKT9 (peptide)
chain: FWCEVCGATFTQKGNLLRHIKL
B17: Q9UKT9 (peptide)
chain: FFCDVCGAYFTQKGNLLRHIKL
B18: Q9UKT9 (peptide)
chain: FGCDICGARFTQKGNLLRHIKL
B19: Q9UKT9 (peptide)
chain: FNCNVCGACFTQKGNLLRHIKL
B20: Q9UKT9 (peptide)
chain: FKCEICGAVFTQKGNLLRHIKL
B21: Q9UKT9 (peptide)
chain: FECDICGAYFTQKGNLLRHIKL
B22: Q9UKT9 (peptide)
chain: FNCSVCGHQFTQKGNLLRHIKL
B23: Q9UKT9 (peptide)
chain: FCCDVCGADFTQKGNLLRHIKL
B24: Q9UKT9 (peptide)
chain: FYCDICGAPFTQKGNLLRHIKL
B25: Q9UKT9 (peptide)
chain: FKCPVCGAPFTQKGNLLRHIKL
B26: Q9UKT9 (peptide)
chain: FWCEICGAMFTQKGNLLRHIKL
B27: Q9UKT9 (peptide)
chain: FFCNQCGADFTQKGNLLRHIKL
B28: Q9UKT9 (peptide)
chain: FICNQCGHDFTQKGNLLRHIKL
B29: Q9UKT9 (peptide)
chain: FHCNQCGRPFTQKGNLLRHIKL
B30: Q9UKT9 (peptide)
chain: FMCPICGHAFTQKGNLLRHIKL
B31: Q9UKT9 (peptide)
chain: FVCNQCGATFTQKGNLLRHIKL
B32: Q9UKT9 (peptide)
chain: FSCPICGHFFTQKGNLLRHIKL
B33: Q9UKT9 (peptide)
chain: FHCNQCGRVFTQKGNLLRHIKL
B34: Q9UKT9 (peptide)
chain: FFCPICGHGFTQKGNLLRHIKL
B35: Q9UKT9 (peptide)
chain: FNCNQCGHRFTQKGNLLRHIKL
B36: Q9UKT9 (peptide)
chain: FGCEICGRKFTQKGNLLRHIKL
B37: Q9UKT9 (peptide)
chain: FDCEICGHFFTQKGNLLRHIKL
B38: Q9UKT9 (peptide)
chain: FHCPICGRFFTQKGNLLRHIKL
B39: Q9UKT9 (peptide)
chain: FYCPICGHNFTQKGNLLRHIKL
B40: Q9UKT9 (peptide)
chain: FDCNICGAHFTQKGNLLRHIKL
B41: Q9UKT9 (peptide)
chain: FCCEICGACFTQKGNLLRHIKL
B42: Q9UKT9 (peptide)
chain: FECEQCGALFTQKGNLLRHIKL
B43: Q9UKT9 (peptide)
chain: FSCEQCGADFTQKGNLLRHIKL
B44: Q9UKT9 (peptide)
chain: FKCPICGHWFTQKGNLLRHIKL
B45: Q9UKT9 (peptide)
chain: FTCEICGRIFTQKGNLLRHIKL
B46: Q9UKT9 (peptide)
chain: FKCNICGAKFTQKGNLLRHIKL
B47: Q9UKT9 (peptide)
chain: FLCEICGHTFTQKGNLLRHIKL
B48: Q9UKT9 (peptide)
chain: FWCEICGRCFTQKGNLLRHIKL
B49: Q9UKT9 (peptide)
chain: FHCPVCGARFTQKGNLLRHIKL
B50: Q9UKT9 (peptide)
chain: FCCNQCGHDFTQKGNLLRHIKL

target: no compound (DMSO); assay: log2 fold change of degron read counts, EGFP-low vs EGFP+ sorted cells; higher = lower degron-EGFP level without compound (poor expression or instability); conditions: compound: DMSO control; 18 h
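Also: jurkat cells carrying a lentiviral library of mutant zinc finger degrons fused to EGFP plus mCherry, mCherry+ cells FACS sorted, degron abundance counted by next-generation sequencing.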

Sequence | log2 fold change of degron read counts
B1 | -1.79
B2 | 1.01
B3 | -1.02
B4 | 0.25
B5 | -0.952
B6 | -0.103
B7 | -0.594
B8 | -2.07
B9 | -2.03
B10 | -1.56
B11 | 0.425
B12 | -1.56
B13 | 0.0643
B14 | -0.439
B15 | -0.874
B16 | -0.895
B17 | -0.486
B18 | -1.19
B19 | -0.104
B20 | -1.64
B21 | -1.44
B22 | -1.01
B23 | -2
B24 | -0.734
B25 | 0.222

Sequence | log2 fold change of degron read counts
B26 | -0.184
B27 | -0.091
B28 | -1.87
B29 | 0.0851
B30 | -0.0169
B31 | -0.609
B32 | 0.0848
B33 | 0.188
B34 | 0.606
B35 | 0.566
B36 | -1.43
B37 | 1.27
B38 | -1.63
B39 | -0.223
B40 | -0.596
B41 | -0.878
B42 | -1.96
B43 | -2.97
B44 | 0.394
B45 | -0.457
B46 | -1.45
B47 | -2.24
B48 | -0.141
B49 | -0.166
B50 | -0.686
